This is one part of the list.

For one test, the system named is HSkMC (human skeletal muscle cells). As to the kind of experiment: cytotoxicity call (relative viability < 0.9). As to conditions: 10 µM.
For `C[C@@H]1CCCCO[C@@H](CN(C)Cc2ccc(C(F)(F)F)cc2)[C@H](C)CN([C@@H](C)CO)C(=O)c2cc(NS(=O)(=O)c3ccc(Cl)cc3)ccc2O1`, the cytotoxicity call is “active”.

With `O=C(C[C@H]1CC[C@H]2[C@@H](COC[C@@H](O)CN2S(=O)(=O)c2ccc(Cl)cc2)O1)NCCN1CCCCC1`, the cytotoxicity call is “inactive”.

For the compound `C[C@H]1CCCCO[C@H](CN(C)Cc2ccc(Cl)c(Cl)c2)[C@@H](C)CN([C@@H](C)CO)C(=O)c2cc(NC(=O)Cc3ccccc3)ccc2O1`, the cytotoxicity call was “inactive”.

Take `C[C@H]1CN([C@@H](C)CO)C(=O)c2cccc(NC(=O)c3cnccn3)c2O[C@H]1CN(C)CC1CCCCC1`: the cytotoxicity call was “inactive”.

The test system of the next test is HepG2. As to the kind of experiment: cytotoxicity call (relative viability < 0.9). As to conditions: 10 µM.
In the case of `O=C(O)[C@H](O)c1ccc(F)cc1`, the cytotoxicity call was “inactive”.

Take `CO[C@@H]1CN(C)C(=O)c2ccc(NC(=O)NC3CCCCC3)cc2OC[C@@H](C)N(CCc2ccccc2)C[C@H]1C`: the cytotoxicity call was “inactive”.

In the case of `CC1COc2c(C3(N)CC3)c(F)cc3c(=O)c(C(=O)O)cn1c23.CS(=O)(=O)O` (centres undefined), the cytotoxicity call was “inactive”.

For the compound `CC(C)C(N)C(=O)OCC(CO)OCn1cnc2c(=O)[nH]c(N)nc21.Cl` (centres undefined), the cytotoxicity call is “inactive”.

With `Cc1noc(C)c1NC(=O)N(C)C[C@H]1Oc2ccc(NC(=O)CCN3CCOCC3)cc2C(=O)N([C@H](C)CO)C[C@@H]1C`, the cytotoxicity call was “inactive”.

As for `C[C@@H]1CCCCO[C@H](CN(C)S(=O)(=O)c2cn(C)cn2)[C@@H](C)CN([C@@H](C)CO)C(=O)c2cc(NC(=O)CCCN(C)C)ccc2O1`, the cytotoxicity call was “inactive”.

On to `O=C(C[C@@H]1CC[C@H]2[C@@H](COC[C@@H](O)CN2C(=O)c2ccccc2)O1)N1CCOCC1`, for which the cytotoxicity call is “inactive”.

Regarding `C[C@H](CO)N1C[C@H](C)[C@@H](CN(C)C(=O)Nc2ccccc2F)Oc2ncc(Br)cc2C1=O`, the cytotoxicity call was “inactive”.

Take `CC(C)(C)NCC(O)c1ccc(O)c(CO)c1` (centres undefined): the cytotoxicity call is “inactive”.

As to `C[C@@H]1CCCCO[C@H](CN(C)S(=O)(=O)c2cn(C)cn2)[C@H](C)CN([C@@H](C)CO)C(=O)c2cc(NC(=O)Nc3cccc4ccccc34)ccc2O1`, the cytotoxicity call was “inactive”.

As to `O=C(CCCCC(=O)N/N=C/[C@H](O)[C@@H](O)[C@H](O[C@@H]1O[C@H](CO)[C@H](O)[C@H](O)[C@H]1O)[C@H](O)CO)NO`, the cytotoxicity call is “inactive”.

As to `Cc1noc(C)c1NC(=O)Nc1cccc2c1O[C@@H](CN(C)S(C)(=O)=O)[C@H](C)CN([C@H](C)CO)C2=O`, the cytotoxicity call was “inactive”.

In the case of `C[C@H](CO)N1C[C@H](C)[C@H](CN(C)C(=O)C2CCCCC2)Oc2cc(C#C[C@@H](C)O)ccc2S1(=O)=O`, the cytotoxicity call was “inactive”.

In the case of `CO[C@H]1CN(C)C(=O)c2cc(NS(=O)(=O)CC(F)(F)F)ccc2OC[C@@H](C)N(Cc2nccs2)C[C@@H]1C`, the cytotoxicity call is “inactive”.

On to `Nc1nc(=O)c2nc(Br)n([C@H]3O[C@H]4CO[PH](O)(O)O[C@@H]4[C@@H]3O)c2[nH]1`, for which the cytotoxicity call was “inactive”.

As for `Cn1c(=O)[nH]c2nc[nH]c2c1=O`, the cytotoxicity call is “inactive”.

Turning to `C[C@@H]1CCCCO[C@@H](CN(C)S(=O)(=O)c2cccs2)[C@@H](C)CN([C@H](C)CO)C(=O)c2cc(NC(=O)C3CCCCC3)ccc2O1`, the cytotoxicity call was “inactive”.

Consider `CO[C@@H]1CN(C)C(=O)c2ccc(NC(=O)C3CCOCC3)cc2OC[C@H](C)N(Cc2cccnc2)C[C@H]1C`, for which the cytotoxicity call is “inactive”.

In the case of `CN(C)C(=O)C[C@@H]1CC[C@@H]2[C@@H](COc3ccc(NS(=O)(=O)c4cccc(F)c4)cc3C(=O)N2C)O1`, the cytotoxicity call was “inactive”.

With `CN(C)C(=O)CN1CCC2(CC1)O[C@H](C(=O)NCc1ccccn1)Cn1ccnc12`, the cytotoxicity call was “inactive”.

On to `COCC#Cc1cnc2c(c1)C(=O)N([C@@H](C)CO)C[C@@H](C)[C@@H](CN(C)C(=O)Nc1cc(F)ccc1F)O2`, for which the cytotoxicity call is “inactive”.

Turning to `C[C@H]1CN([C@@H](C)CO)C(=O)c2cc(NS(=O)(=O)c3cccs3)ccc2O[C@H]1CN(C)C(=O)Nc1cccc2ccccc12`, the cytotoxicity call is “inactive”.

Consider `COC(=O)c1cccc(OC(N)=O)c1`, for which the cytotoxicity call is “inactive”.

In the case of `Cc1cccn2c(=O)c(-c3nn[nH]n3)cnc12`, the cytotoxicity call was “inactive”.

Regarding `C[C@H](CO)N1C[C@H](C)[C@@H](CN(C)C(=O)C2CCOCC2)Oc2cc(-c3ccc(F)cc3)ccc2S1(=O)=O`, the cytotoxicity call is “inactive”.

Consider `Oc1cc(O)c2c(c1)O[C@H](c1ccc(O)c(O)c1)[C@H](O)[C@H]2c1c(O)cc(O)c2c1O[C@H](c1ccc(O)c(O)c1)[C@@H](O)C2`, for which the cytotoxicity call is “inactive”.

Consider `COc1c(OCCCN2CCOCC2)ccc2c1N=C(NC(=O)c1cnc(N)nc1)N1CCN=C21`, for which the cytotoxicity call is “inactive”.

As to `CC(NC(=NC#N)Nc1ccncc1)C(C)(C)C` (centres undefined), the cytotoxicity call was “inactive”.

Regarding `COc1ccc(cc1)NC(=O)N1C[C@]2(C1)CN([C@H](CO)c1[nH]c3cc(ccc3c12)OC)C(=O)CN1CCOCC1`, the cytotoxicity call was “inactive”.

For `COc1ccc(-c2oc3c(CC=C(C)C)c(O[C@@H]4O[C@H](CO)[C@@H](O)[C@H](O)[C@H]4O)cc(O)c3c(=O)c2O[C@@H]2O[C@@H](C)[C@H](O)[C@@H](O)[C@H]2O)cc1`, the cytotoxicity call is “inactive”.

Take `O=C(NCc1ccncc1)C(=O)NC[C@H]1OCCN1C(=O)c1ccc(Cl)cc1`: the cytotoxicity call was “inactive”.

As for `C[C@H](CO)N1C[C@H](C)[C@@H](CN(C)Cc2ccc(Oc3ccccc3)cc2)Oc2c(NS(=O)(=O)c3ccccc3)cccc2C1=O`, the cytotoxicity call was “inactive”.

Consider `COc1ccc([Si](C)(C)[C@@H]2[C@@H](CCO)O[C@]3(C(=O)N(Cc4cccc(N5C(=O)COc6ccccc65)c4)c4ccccc43)[C@H]2C)cc1`, for which the cytotoxicity call is “active”.

For the compound `C[C@@H]1CN([C@H](C)CO)C(=O)c2cc(NS(=O)(=O)c3cccs3)ccc2O[C@@H](C)CCCCO[C@@H]1CN(C)Cc1ccccc1`, the cytotoxicity call is “inactive”.

Consider `C[C@@H]1CCCCO[C@@H](CN(C)C(=O)c2ccncc2)[C@H](C)CN([C@@H](C)CO)C(=O)c2cc(NS(C)(=O)=O)ccc2O1`, for which the cytotoxicity call is “inactive”.

Take `C[C@H]1CN([C@@H](C)CO)C(=O)c2cccc(NS(=O)(=O)c3ccc(F)cc3)c2O[C@@H]1CN(C)S(=O)(=O)c1cn(C)cn1`: the cytotoxicity call was “inactive”.

For `C[C@@H]1CCCCO[C@@H](CN(C)Cc2ccc(C(F)(F)F)cc2)[C@H](C)CN([C@@H](C)CO)C(=O)c2cc(NS(=O)(=O)c3ccc(Cl)cc3)ccc2O1`, the cytotoxicity call was “active”.

`O=C(C[C@H]1CC[C@H]2[C@@H](COC[C@@H](O)CN2S(=O)(=O)c2ccc(Cl)cc2)O1)NCCN1CCCCC1`: the cytotoxicity call is “inactive”.

As for `C[C@H]1CCCCO[C@H](CN(C)Cc2ccc(Cl)c(Cl)c2)[C@@H](C)CN([C@@H](C)CO)C(=O)c2cc(NC(=O)Cc3ccccc3)ccc2O1`, the cytotoxicity call is “active”.

As for `C[C@H]1CN([C@@H](C)CO)C(=O)c2cccc(NC(=O)c3cnccn3)c2O[C@H]1CN(C)CC1CCCCC1`, the cytotoxicity call is “inactive”.
